{"source": "the supplement of paper PMC8728848", "assay_in_all_cases": "glycan array binding signal (z-score within array); higher = stronger binding", "details_in_all_cases": "glycan notation: IUPAC condensed, linker removed", "key": {"[1]": {"molecular_target": "GlcNAc6S(b1-3)Gal(b1-4)GlcNAc", "how_it_was_run": "(§1)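 The Consortium for Functional Glycomics database supplied 3228 glycan arrays, of which those lacking an available protein sequence were dropped. The binding signal, a within-array Z-score, was averaged across arrays of the same protein sequence and across linkers. Negative scores can be read as non-binding.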"}, "[2]": {"molecular_target": "Kdn(a2-3)Gal(b1-3)GalNAc", "how_it_was_run": "as §1"}, "[3]": {"molecular_target": "Kdn(a2-3)Gal(b1-3)GlcNAc", "how_it_was_run": "as §1"}, "[4]": {"molecular_target": "Kdn(a2-3)Gal(b1-4)Glc", "how_it_was_run": "as §1"}, "[5]": {"molecular_target": "Kdn(a2-3)Gal(b1-4)GlcNAc", "how_it_was_run": "as §1"}, "[6]": {"molecular_target": "Kdn(a2-3)Gal(b1-4)[Fuc(a1-3)]GlcNAc", "how_it_was_run": "as §1"}, "[7]": {"molecular_target": "Kdn(a2-6)Gal(b1-4)GlcNAc", "how_it_was_run": "as §1"}, "[8]": {"molecular_target": "Man(a1-2)Man(a1-2)Man(a1-3)Man", "how_it_was_run": "as §1"}, "[9]": {"molecular_target": "Man(a1-2)Man(a1-2)Man(a1-3)[Man(a1-2)Man(a1-3)[Man(a1-2)Man(a1-6)]Man(a1-6)]Man(b1-4)GlcNAc(b1-4)GlcNAc", "how_it_was_run": "as §1"}, "[10]": {"molecular_target": "Man(a1-2)Man(a1-2)Man(a1-3)[Man(a1-2)Man(a1-6)[Man(a1-3)]Man(a1-6)]Man(b1-4)GlcNAc(b1-4)GlcNAc", "how_it_was_run": "as §1"}, "[11]": {"molecular_target": "Man(a1-2)Man(a1-2)Man(a1-6)[Man(a1-3)]Man", "how_it_was_run": "as §1"}, "[12]": {"molecular_target": "Man(a1-2)Man(a1-3)Man", "how_it_was_run": "as §1"}, "[13]": {"molecular_target": "Man(a1-2)Man(a1-3)[Man(a1-2)Man(a1-6)]Man", "how_it_was_run": "as §1"}, "[14]": {"molecular_target": "Man(a1-2)Man(a1-3)[Man(a1-2)Man(a1-6)]Man(a1-6)[Man(a1-2)Man(a1-2)Man(a1-3)]Man", "how_it_was_run": "as §1"}, "[15]": {"molecular_target": "Man(a1-2)Man(a1-3)[Man(a1-2)Man(a1-6)]Man(a1-6)[Man(a1-2)Man(a1-2)Man(a1-3)]Man(b1-4)GlcNAc(b1-4)GlcNAc", "how_it_was_run": "as §1"}, "[16]": {"molecular_target": "Man(a1-2)Man(a1-3)[Man(a1-3)[Man(a1-6)]Man(a1-6)]Man(b1-4)GlcNAc(b1-4)GlcNAc", "how_it_was_run": "as §1"}, "[17]": {"molecular_target": "Man(a1-2)Man(a1-3)[Man(a1-6)]Man(a1-6)[Man(a1-2)Man(a1-3)]Man(b1-4)GlcNAc(b1-4)GlcNAc", "how_it_was_run": "as §1"}, "[18]": {"molecular_target": "Man(a1-2)Man(a1-6)[Man(a1-3)]Man(a1-6)[Man(a1-2)Man(a1-2)Man(a1-3)]Man", "how_it_was_run": "as §1"}, "[19]": {"molecular_target": "Man(a1-2)Man(a1-6)[Man(a1-3)]Man(a1-6)[Man(a1-2)Man(a1-2)Man(a1-3)]Man(b1-4)GlcNAc(b1-4)GlcNAc", "how_it_was_run": "as §1"}, "[20]": {"molecular_target": "Man(a1-3)[Man(a1-6)]Man", "how_it_was_run": "as §1"}, "[21]": {"molecular_target": "Man(a1-3)[Man(a1-6)]Man(a1-6)[Man(a1-2)Man(a1-3)]Man(b1-4)GlcNAc(b1-4)GlcNAc", "how_it_was_run": "as §1"}, "[22]": {"molecular_target": "Man(a1-3)[Man(a1-6)]Man(a1-6)[Man(a1-3)]Man", "how_it_was_run": "as §1"}, "[23]": {"molecular_target": "Man(a1-3)[Man(a1-6)]Man(a1-6)[Man(a1-3)]Man(b1-4)GlcNAc(b1-4)GlcNAc", "how_it_was_run": "as §1"}, "[24]": {"molecular_target": "Man(a1-3)[Man(a1-6)]Man(b1-4)GlcNAc(b1-4)GlcNAc", "how_it_was_run": "as §1"}, "[25]": {"molecular_target": "Man(a1-3)[Man(a1-6)]Man(b1-4)GlcNAc(b1-4)[Fuc(a1-6)]GlcNAc", "how_it_was_run": "as §1"}, "[26]": {"molecular_target": "Man(a1-6)Man", "how_it_was_run": "as §1"}, "[27]": {"molecular_target": "Man(b1-4)GlcNAc", "how_it_was_run": "as §1"}, "[28]": {"molecular_target": "MurNAc(b1-4)GlcNAc", "how_it_was_run": "as §1"}, "[29]": {"molecular_target": "Neu5Ac(a2-3)Gal", "how_it_was_run": "as §1"}, "[30]": {"molecular_target": "Neu5Ac(a2-3)Gal(b1-3)GalNAc", "how_it_was_run": "as §1"}}, "note": "The list shows a part of the results.", "data": [{"binder": "Epa1-NP (Candida glabrata), Q6VBJ0 (protein) MILNPALFLNKCVCIYTTLILLLLTNGGYATSSNDISLASKDPTTFPLGCSPDITTPKKGLSMELYSYDFRKKGSYPCWDAAYLDPNYPRTGYKSHRLLAKVDGVTGNINFYYHATKGCTPQLGHLPASYNYPKPLTMTNFTMLLYGYFRPKVTGFHTFTISADDLLFVNFGAGNAFDCCRRDSSADHFGNYQAYAIWGSKTAKDELTVHLDAGVYYPIRLFYNNREYDGALSFTFKTESNENTVSDFSEYFFSLDDTEEGCPGLISYDSSCASVKTSKIIGIDYHTETPNENLVPITKTIYHLGIPCTGTTTTPLCGSGFYDPLANKCVTINTSSTSSVTKTTSHTTSKEVSFHSSISSQKTLIPKSIPSPYGPIKSQSIPTEMETSSEISSSEYAFSDVISTPSHSPYTKKHSSLNSSSYTSTVIHSLTSYSISQGIFSTSLSEQNITSKSSTDKFSTATSMSNNITQSSIIISQFSTNNENYTTTSMHTSSDKISTETLNNSISTTTSILFSNSSTILKNNTTIISSDKDTHYHPVNPTIVCSTNKTEIICASITQPSISNSNNHWSSSVLKFNSTTVRSTLPSSAGSNETSINVPFSSSTESNTSTSSTSTSNSKMVRSTLPSSAGSNETSISVPFSSSTESNTSTSSTSTSNSKMVRSTLPSSAGSNETSINVPFSSSTESNTSTSSTSTSNSKTVRSTPFSSAGIIMTSLSQRNNKSASSYASSNSKCYNTADSCRKVHSTPSYLLTSSYTSEGVDYDCSLVSTKLKINDTNCVNNKHTTKSCLKTSVTTTIPTLEIKTARKSSSNTIGLHSYPTSSPNKSISSAPIIGYISSFKTIKTASPSYQTSDLTTITTITSLNNPGSTAVENTHESNDKSRKTSSNDISSKHSVIKETKDAVESSNKSHQTNTLKCSSIIIASSSHNSYESLGGTTLTLTLSKVYSPQNNDTLPFLEISEVNPSRTVLPESSKMMQYLTSTEERNKTARNTIATNIVSISTFHFEGEGNAIRMGYTQLLLMLIGIIVMNIGT", "values": [{"measurement": "glycan array binding signal (z-score)", "setting": "[1]", "value": 0.881}, {"measurement": "glycan array binding signal (z-score)", "setting": "[2]", "value": -0.289}, {"measurement": "glycan array binding signal (z-score)", "setting": "[3]", "value": -0.331}, {"measurement": "glycan array binding signal (z-score)", "setting": "[4]", "value": -0.3}, {"measurement": "glycan array binding signal (z-score)", "setting": "[5]", "value": -0.3}, {"measurement": "glycan array binding signal (z-score)", "setting": "[6]", "value": -0.201}, {"measurement": "glycan array binding signal (z-score)", "setting": "[7]", "value": -0.271}, {"measurement": "glycan array binding signal (z-score)", "setting": "[8]", "value": -0.333}, {"measurement": "glycan array binding signal (z-score)", "setting": "[9]", "value": -0.551}, {"measurement": "glycan array binding signal (z-score)", "setting": "[10]", "value": -0.551}, {"measurement": "glycan array binding signal (z-score)", "setting": "[11]", "value": -0.335}, {"measurement": "glycan array binding signal (z-score)", "setting": "[12]", "value": -0.318}, {"measurement": "glycan array binding signal (z-score)", "setting": "[13]", "value": -0.337}, {"measurement": "glycan array binding signal (z-score)", "setting": "[14]", "value": -0.276}, {"measurement": "glycan array binding signal (z-score)", "setting": "[15]", "value": -0.303}, {"measurement": "glycan array binding signal (z-score)", "setting": "[16]", "value": -0.551}, {"measurement": "glycan array binding signal (z-score)", "setting": "[17]", "value": -0.421}, {"measurement": "glycan array binding signal (z-score)", "setting": "[18]", "value": -0.287}, {"measurement": "glycan array binding signal (z-score)", "setting": "[19]", "value": -0.285}, {"measurement": "glycan array binding signal (z-score)", "setting": "[20]", "value": -0.31}, {"measurement": "glycan array binding signal (z-score)", "setting": "[21]", "value": -0.303}, {"measurement": "glycan array binding signal (z-score)", "setting": "[22]", "value": -0.29}, {"measurement": "glycan array binding signal (z-score)", "setting": "[23]", "value": -0.413}, {"measurement": "glycan array binding signal (z-score)", "setting": "[24]", "value": -0.374}, {"measurement": "glycan array binding signal (z-score)", "setting": "[25]", "value": -0.281}, {"measurement": "glycan array binding signal (z-score)", "setting": "[26]", "value": -0.287}, {"measurement": "glycan array binding signal (z-score)", "setting": "[27]", "value": -0.324}, {"measurement": "glycan array binding signal (z-score)", "setting": "[28]", "value": -0.285}, {"measurement": "glycan array binding signal (z-score)", "setting": "[29]", "value": -0.315}, {"measurement": "glycan array binding signal (z-score)", "setting": "[30]", "value": -0.292}]}]}
